These are yes or no findings as the source states them, for the method shown. Binding seen in cells or lysates may run through a third protein. Some binding calls cover weakened binding; strength is not graded here. Values belong to the substance of their own block, whether it stands above or below them.
Key:
[1] = molecular target: myc-ATP7A (human) (UniProt Q04656); assay: co-IP; Cos7 cells co-transfected with tagged ATP7A and tagged VEGFR2, with or without VEGF (20 ng/ml); anti-Myc IP and anti-HA IB; IgG as control IP
[2] = molecular target: VEGF receptor type2 (VEGFR2) (human (endogenous in HUVEC)) (UniProt P35968); assay: co-IP; HUVECs transfected with control or ATP7A siRNAs, VEGF (20 ng/ml) for 15 and 30 min; IP with VEGFR2 antibody, IB with p62 or VEGFR2 antibodies
[3] = molecular target: P-type ATPase transporter ATP7A (human (endogenous in HUVEC)) (UniProt Q04656); assay: co-IP; HUVEC lysates, VEGF (20 ng/ml) for the indicated time; IP with anti-ATP7A antibody, IB with VEGFR2 or ATP7A antibody; lysis buffer pH 7.4, 120 mM NaCl, 1% Triton X-100
[4] = molecular target: P-type ATPase transporter ATP7A (human (endogenous in HUVEC)) (UniProt Q04656); assay: proximity ligation; Duolink in situ PLA in fixed, permeabilised HUVECs, VEGF (20 ng/ml) for 30 min; mouse anti-ATP7A and rabbit anti-VEGFR2 primary antibodies; single or no primary antibody as negative control
[5] = molecular target: p62/Sequestosome 1 (SQSTM1) (human (endogenous in HUVEC)) (UniProt Q13501); assay: co-IP; ECs with or without VEGF stimulation (Supplementary Fig. 6)

By UniProt entry, the sequences of proteins in these tests, tags left out.
UniProt Q04656: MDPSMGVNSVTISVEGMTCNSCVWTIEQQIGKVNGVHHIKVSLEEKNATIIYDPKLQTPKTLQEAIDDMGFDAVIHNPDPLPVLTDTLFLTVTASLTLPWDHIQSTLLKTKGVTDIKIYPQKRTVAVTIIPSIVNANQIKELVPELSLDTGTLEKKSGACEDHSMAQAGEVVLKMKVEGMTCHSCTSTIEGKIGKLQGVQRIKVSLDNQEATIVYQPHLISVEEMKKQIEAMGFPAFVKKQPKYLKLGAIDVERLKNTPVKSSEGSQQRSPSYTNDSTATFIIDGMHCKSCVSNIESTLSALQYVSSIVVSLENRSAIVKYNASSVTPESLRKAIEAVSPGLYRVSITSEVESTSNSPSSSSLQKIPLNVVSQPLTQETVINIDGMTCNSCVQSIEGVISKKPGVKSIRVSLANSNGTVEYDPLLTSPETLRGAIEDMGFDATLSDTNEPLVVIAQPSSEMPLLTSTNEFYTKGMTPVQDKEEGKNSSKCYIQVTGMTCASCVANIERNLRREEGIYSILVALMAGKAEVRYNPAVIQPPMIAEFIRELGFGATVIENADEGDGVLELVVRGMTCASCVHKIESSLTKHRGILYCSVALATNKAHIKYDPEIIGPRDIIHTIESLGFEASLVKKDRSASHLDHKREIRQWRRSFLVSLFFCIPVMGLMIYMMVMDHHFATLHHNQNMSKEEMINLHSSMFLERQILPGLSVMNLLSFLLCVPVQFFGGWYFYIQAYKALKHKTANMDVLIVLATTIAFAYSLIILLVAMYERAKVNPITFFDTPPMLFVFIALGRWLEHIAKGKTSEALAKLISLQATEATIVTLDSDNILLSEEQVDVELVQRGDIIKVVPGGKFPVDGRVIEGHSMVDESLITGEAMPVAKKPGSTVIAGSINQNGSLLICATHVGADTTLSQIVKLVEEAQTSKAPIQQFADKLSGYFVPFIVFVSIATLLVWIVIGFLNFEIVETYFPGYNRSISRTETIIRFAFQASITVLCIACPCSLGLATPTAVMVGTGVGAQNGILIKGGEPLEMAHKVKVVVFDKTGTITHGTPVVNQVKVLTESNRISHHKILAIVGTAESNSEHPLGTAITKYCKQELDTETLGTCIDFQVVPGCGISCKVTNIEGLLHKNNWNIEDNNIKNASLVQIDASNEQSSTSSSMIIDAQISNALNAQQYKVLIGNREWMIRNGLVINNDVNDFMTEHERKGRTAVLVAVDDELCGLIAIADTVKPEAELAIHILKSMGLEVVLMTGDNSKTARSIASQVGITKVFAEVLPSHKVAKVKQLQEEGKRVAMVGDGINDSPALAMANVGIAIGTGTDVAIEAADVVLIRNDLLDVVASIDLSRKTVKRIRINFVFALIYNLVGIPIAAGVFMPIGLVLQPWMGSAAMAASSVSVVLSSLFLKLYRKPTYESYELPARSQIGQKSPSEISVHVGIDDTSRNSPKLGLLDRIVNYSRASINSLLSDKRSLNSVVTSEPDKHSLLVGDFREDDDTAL

binding [1]: binds
Substance: flag-VEGFR2 (from UniProt P35968 20-1356) (receptor)

binding [2]: binds
Substance: p62/Sequestosome 1 (SQSTM1) (from UniProt Q13501 1-440)

binding [3]: binds | binding [4]: binds
Substance: VEGF receptor type2 (VEGFR2) (from UniProt P35968 20-1356)

binding [5]: no binding
Substance: P-type ATPase transporter ATP7A (from UniProt Q04656 1-1500)
